Usually % Inhibition stands for the drop in the measured response relative to a control, in per cent.

About 540 (0.36%) of roughly 150,000 compounds showed an effect of 50% or more. The list shows a part of the results.

The assay relates to Plasmodium falciparum. Put plainly: Primary screen in NF54 nanoGlo assay, in single point, at 2uM, 72h; a lower Z score goes with more inhibition. The conditions noted are these: timepoint 72 hour. The class given is functional, Erythrocyte.
Regarding `C[C@H]1CN(c2nccnc2C#N)CCN1C(=O)c1ccc2[nH]ccc2c1`, the “% Inhibition” value was -11% and the Z score is recorded as 1.72.

With `CNc1nc(NC2COCCC2Oc2ccccn2)ncc1F` (configuration not stated), the “% Inhibition” value was -8% and the Z score is 1.48.

As to `COCCN1CCC(N2CCN(c3cccc(C(F)(F)F)n3)CC2)CC1`, the “% Inhibition” value is recorded as 0% and the Z score is on record as 0.01.

Consider `O=C(NCCNc1cccnc1)[C@H]1CCCN(C2CCOCC2)C1`, for which the “% Inhibition” value is reported as -13% and the Z score is on record as 1.98.

For the molecule `CN1CCC(N2CC3CCCC3(c3noc(-c4ccccc4)n3)C2)CC1` (configuration not stated), the “% Inhibition” value is -1% and the Z score is given as 0.26.

As for `NC(=O)C1(N2CCCCC2)CCN(C[C@]2(O)CCCN3CCCC[C@@H]32)CC1`, the “% Inhibition” value is listed as -2% and the Z score stood at 0.26.

Regarding `COCc1ccc(CN(CCN2CCCCC2)C[C@H]2CCCN(C3CCCC3)C2)o1`, the “% Inhibition” value was determined as 2% and the Z score is -0.3.

With `Nc1nccc([C@H]2CCCN(Cc3ccc(Br)c4cccnc34)C2)n1`, the “% Inhibition” value is reported as -12% and the Z score was found to be 2.04.

Take `N#Cc1cccnc1N1CCC(Nc2nccc(N3CCC[C@H](O)C3)n2)CC1`: the “% Inhibition” value is given as -12% and the Z score was 2.1.

On to `COCCN(C)C[C@H]1CCCN1c1nc(-c2ccncc2)nc2ccccc12`, for which the “% Inhibition” value was 2% and the Z score is on record as -0.44.

Turning to `CCOc1ccnc(NC[C@H]2CCN(C3CCCC3)C2)n1`, the “% Inhibition” value is -9% and the Z score turned out to be 1.98.

For the molecule `CC(C)COC(=O)N1CCCN(C[C@H](C)N2CCCN(C(=O)OCC(C)C)CC2)CC1`, the “% Inhibition” value came out at 14% and the Z score is on record as -3.09.

In the case of `Cc1cc2nc(-c3ccccc3)cc(N[C@@H](C)c3n[nH]c(=O)[nH]3)n2n1`, the “% Inhibition” value amounted to 2% and the Z score is reported as -0.37.

Take `Cc1ccc2nc(C(=O)O)cc(Nc3cccc(F)c3)c2c1`: the “% Inhibition” value is given as 4% and the Z score is -0.66.

`COc1ccc2nc(-c3ccccc3)c(CN3CCN(C)CC3)c(O)c2c1`: the “% Inhibition” value is recorded as -7% and the Z score was found to be 1.29.

Regarding `OCCN1CCC(CNc2ccc3cc(Br)c(F)cc3n2)CC1`, the “% Inhibition” value amounted to 3% and the Z score is on record as -0.52.

On to `Cc1nccn1-c1ccccc1CN[C@@H](C)CN1CCN(C)CC1`, for which the “% Inhibition” value is recorded as -3% and the Z score turned out to be 0.43.

On to `CCN1CCN(c2ccc(CN[C@@H](C)c3cc4ccncc4s3)cn2)CC1`, for which the “% Inhibition” value is listed as -7% and the Z score turned out to be 1.43.

Turning to `CN(C)CCN1CCN(c2cccc(N)c2)CC1`, the “% Inhibition” value is recorded as -8% and the Z score turned out to be 1.37.

Take `CC(O)(CNc1ncc(Cl)c(NCC(C)(O)C2CC2)n1)C1CC1` (configuration not stated): the “% Inhibition” value was found to be 10% and the Z score was -2.06.

`CN1CCC(N2CCC(c3nc(-c4c[nH]c5ccccc45)n[nH]3)CC2)CC1`: the “% Inhibition” value is -3% and the Z score was 0.73.

Regarding `Fc1ccc(-c2cc(N3CCCn4cncc4C3)n3nccc3n2)cc1`, the “% Inhibition” value is given as -4% and the Z score came to 0.87.

As for `CC(C)N(C)S(=O)(=O)c1ccc(Cl)c(C(=O)N2CCC(N3CCNC3=O)CC2)c1`, the “% Inhibition” value is -2% and the Z score was determined as 0.48.

Consider `Cc1nnc(-c2cccc(C(=O)N3CC4(CC4)c4ccccc43)c2)o1`, for which the “% Inhibition” value was -3% and the Z score was determined as 0.66.

In the case of `CCOc1ccc2oc(-c3ccccc3)c(C(=O)NCCc3c[nH]c4ccccc34)c2c1`, the “% Inhibition” value turned out to be 8% and the Z score was -1.66.

With `CC(C)(C#N)C(=O)Nc1cc(-c2nc3ccc(Br)cc3[nH]2)ccc1Cl`, the “% Inhibition” value is on record as -2% and the Z score turned out to be 0.27.

As for `Cc1cc(C)nc(Nc2ccc(Cl)c(C(=O)N3CCN([C@@H](C)C(=O)NC4CC4)CC3)c2)n1`, the “% Inhibition” value is listed as -5% and the Z score stood at 0.85.

Take `O[C@H]1CCCN(CCCNc2cccc(C(F)(F)F)n2)C1`: the “% Inhibition” value is -4% and the Z score is reported as 0.66.

In the case of `Nc1ccc2c(N[C@@H]3CCCC[C@H]3O)ncnc2n1`, the “% Inhibition” value turned out to be 1% and the Z score is -0.17.

Regarding `Cc1cc(Nc2ncnc3c2cnn3C)cnc1N1CCCC[C@@H]1C`, the “% Inhibition” value is reported as -19% and the Z score came out at 3.21.

Consider `CN1CCC(Cc2noc(-c3ccc(-c4ccncc4)[nH]c3=O)n2)CC1`, for which the “% Inhibition” value is reported as -8% and the Z score is given as 1.22.

On to `CC(C)c1cnc(NC(=O)N2CC[C@H](Nc3ccc4nccn4n3)C2)s1`, for which the “% Inhibition” value was -8% and the Z score was found to be 1.46.

Turning to `Cc1ccc(-c2cc(N3CCOCC3)c3cc(NC(=O)NC4CCCCC4)ccc3n2)cc1`, the “% Inhibition” value is on record as -3% and the Z score is on record as 0.44.

Regarding `Cc1c(CN2CCC[C@H](CCC(=O)N(C)C3CCN(C)CC3)C2)[nH]c2c(C)cccc12`, the “% Inhibition” value stood at 7% and the Z score is reported as -1.26.

For `FC(F)(F)c1c[nH]c(C2CCN(c3ncnc4[nH]ncc34)CC2)n1`, the “% Inhibition” value is -2% and the Z score was found to be 0.39.

On to `O[C@H](COc1ccccc1CNCCCn1ncc2ccccc21)CN1CCCCC1`, for which the “% Inhibition” value amounted to 13% and the Z score was -2.26.

In the case of `NC(=NCCCc1nc2ccccc2[nH]1)NC1CCCCCC1`, the “% Inhibition” value is listed as -5% and the Z score came to 0.9.

On to `CC(C)c1ccnc(NCC2CCNCC2)n1`, for which the “% Inhibition” value is -1% and the Z score worked out at 0.31.

For `Nc1nc(N2CCOCC2)cc(N2CCC(N3CCC[C@H](CO)C3)CC2)n1`, the “% Inhibition” value was -10% and the Z score was 1.71.

With `O=C(CCn1cnc(-c2ccccc2)c1-c1cc2ccccc2[nH]1)N1CCCC1`, the “% Inhibition” value was -3% and the Z score was 0.75.

On to `Cc1cccc2c1OCC[C@H]2NS(=O)(=O)c1cnnn1C`, for which the “% Inhibition” value amounted to 4% and the Z score is -0.76.

The values are drawn from ChEMBL document CHEMBL5308541, “MAIP: An Open-Source Tool to Enrich High-Throughput Screening Output and Identify Novel, Druglike Molecules with Antimalarial Activity” (ACS Med Chem Lett, 2023).
